From paper PMC7819943, “Rice protein-binding microarrays: a tool to detect cis-acting elements near promoter regions in rice”
The list shows a part of the results.

These sequences were tested against T1, OsWOX13 (Oryza sativa, UniProt Q5QMM3 1-267) (assay: protein-binding microarray (RPBM); PBS, 2% BSA, 51.3 ng/ul salmon testes DNA, 50 uM zinc acetate, 200 nM TF, 25 C, 1 h; high values mean tight binding). Settings: protein: recombinant; tags: N-terminal polyhistidine and DsRed monomer fusion (pET32a); label: CyDye5-dUTP incorporated in the synthesized complementary strand; 3' TTTTT single-stranded linker to array surface; dsDNA, one strand shown.
T1 sequence: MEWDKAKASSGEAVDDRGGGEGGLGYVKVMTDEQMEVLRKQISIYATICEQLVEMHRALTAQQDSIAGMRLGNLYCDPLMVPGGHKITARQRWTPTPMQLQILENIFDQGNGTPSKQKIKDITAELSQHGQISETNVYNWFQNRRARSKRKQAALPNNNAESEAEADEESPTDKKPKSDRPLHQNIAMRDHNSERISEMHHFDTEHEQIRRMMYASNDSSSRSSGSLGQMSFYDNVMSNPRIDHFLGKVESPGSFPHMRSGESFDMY
Procedure, shortened: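 Transcription factors, each fused N-terminally to a polyhistidine tag and DsRed, were expressed in E. coli BL21-CodonPlus and purified on Ni–NTA. A custom Agilent array was made double-stranded by primer extension with Cy5-dUTP and blocked with 2% BSA. It was incubated with 200 nM protein in PBS, 2% BSA, salmon testes DNA and 50 µM zinc acetate at 25 °C for 1 h, then washed. The binding signal is per-feature fluorescence intensity (arbitrary units) read on an Axon 4000B scanner.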
In the case of “GCAGGGTAATTACTTGTCAGACGAAGACTGTAATTTTAACCGGAGTCACCTAGTGCAG”, the binding signal is reported as 12000 fluorescence intensity (a.u.). For “AGTTTTAAACACGGTTTAATTATAAAATAAATTTTGTGAGCGGAGTCACCTAGTGCAG”, the binding signal was 8730 fluorescence intensity (a.u.). In the case of “CATGTGGTTGAAACTTGATTGAAATTTCCTCAGTACATTGCGGAGTCACCTAGTGCAG”, the binding signal is reported as 6550 fluorescence intensity (a.u.). “AATCAATTAGATAGAGGCCCTTAGCTTCCTCCTTGATTATCGGAGTCACCTAGTGCAG” was tested, and the binding signal was 18400 fluorescence intensity (a.u.). In the case of “TACAATAAATTATGACAGATCTACCCCAGTCGGCCCGTAACGGAGTCACCTAGTGCAG”, the binding signal is reported as 13800 fluorescence intensity (a.u.). For “TGCCTAAATTTATACTGATGGGGTGTATATATGGTGAAAACGGAGTCACCTAGTGCAG”, the binding signal was 17500 fluorescence intensity (a.u.). “TATGATAATTTGATCAAAGTACATGTAGTTTTGTGAAATTCGGAGTCACCTAGTGCAG” was tested, and the binding signal was 7780 fluorescence intensity (a.u.). In the case of “TCCCTCTATCAATCAAGAAACAAGCAAGATTATTCTAGCCCGGAGTCACCTAGTGCAG”, the binding signal is reported as 16700 fluorescence intensity (a.u.). In the case of “GTCTAATTAATCCATGATTAGTTTATGTAATGCTACATTACGGAGTCACCTAGTGCAG”, the binding signal is reported as 51700 fluorescence intensity (a.u.). “TCCAGTAATTATATTCCCTCCGTTTCAAAATATTTAACACCGGAGTCACCTAGTGCAG” was tested, and the binding signal was 15100 fluorescence intensity (a.u.). With “TTTGGATTGATTAATTCGTTGATAAGACTCGGATTCCGGACGGAGTCACCTAGTGCAG” the binding signal was 47000 fluorescence intensity (a.u.). For “GGAAACCTAATTAACCCGGCCGCCGGTGGGTAGCTACTAGCGGAGTCACCTAGTGCAG”, the binding signal was 3210 fluorescence intensity (a.u.). “GTGCCATTAATTTTGACTACTACTTGTGTGTCCTATCAAACGGAGTCACCTAGTGCAG” was tested, and the binding signal was 7280 fluorescence intensity (a.u.). For “TTTGAGTAAATTACATCTACAATACGTAAACTTGGGGTAGCGGAGTCACCTAGTGCAG”, the binding signal was 6650 fluorescence intensity (a.u.). For “ATAGTATTAACGTGATCTAATTTCATCCTACATTACTGTACGGAGTCACCTAGTGCAG”, the binding signal was 3940 fluorescence intensity (a.u.). In the case of “AATCCTAAAATTACATACTAATTACATATGTAAGTGACGTCGGAGTCACCTAGTGCAG”, the binding signal is reported as 19400 fluorescence intensity (a.u.). In the case of “TTTTGATTTATAGCAAGACTCTTCCTGAGCATGTCAAGCACGGAGTCACCTAGTGCAG”, the binding signal is reported as 23300 fluorescence intensity (a.u.). For “ACCTCTTAATGAGAATGTGACTCATCCTAATACAACCAACCGGAGTCACCTAGTGCAG”, the binding signal was 3580 fluorescence intensity (a.u.). “ATTTCAGATTAATTTGGTTTGTGTTTACATTTAGTCGCGACGGAGTCACCTAGTGCAG” was tested, and the binding signal was 16400 fluorescence intensity (a.u.). “CTCTAGATTAGGATGTGCACTTACCTTTAGTCTCCACCTTCGGAGTCACCTAGTGCAG” was tested, and the binding signal was 5180 fluorescence intensity (a.u.). With “TTCCTGGGAGATAATTAATTACTTACTCCTACTCCCTCGGCGGAGTCACCTAGTGCAG” the binding signal was 16300 fluorescence intensity (a.u.). With “GTTGATTTTAGATTAGCTGGACCCTGGGCCATGAGGAGATCGGAGTCACCTAGTGCAG” the binding signal was 23700 fluorescence intensity (a.u.). “TTAATTAATCTCGTATTGGGTTCTTATACGGACTCTTCTTCGGAGTCACCTAGTGCAG” was tested, and the binding signal was 4080 fluorescence intensity (a.u.). With “TTCTCTGACAATATTGTTAAATGCCTGAAATTGGATCACTCGGAGTCACCTAGTGCAG” the binding signal was 3440 fluorescence intensity (a.u.). “TTAATATTTATAATTAATGTTCAAATATCTAATGTGATAGCGGAGTCACCTAGTGCAG” was tested, and the binding signal was 6920 fluorescence intensity (a.u.). “CATGATTAGCCATAAATGCTACAGTAATCCACATTTGCTACGGAGTCACCTAGTGCAG” was tested, and the binding signal was 47500 fluorescence intensity (a.u.). In the case of “GTGGTGATTGGTCCTGGCTACGTGTCCCGTTTCCGTCCCACGGAGTCACCTAGTGCAG”, the binding signal is reported as 50900 fluorescence intensity (a.u.). “GCATGTGATTTGTACTTGTTTATTAAGGCTTTGGACATGACGGAGTCACCTAGTGCAG” was tested, and the binding signal was 20000 fluorescence intensity (a.u.). With “CCTTAGATTGCTTGCTTAATACTCCCTCCGTATTTTAATACGGAGTCACCTAGTGCAG” the binding signal was 3650 fluorescence intensity (a.u.). “ACACAAATTAGCTTCCATGATAAACCCACAGGTACAAGAACGGAGTCACCTAGTGCAG” was tested, and the binding signal was 9700 fluorescence intensity (a.u.). With “GGTTGACCGATACGATTGAAACTCGACTCGCTTAGATAAACGGAGTCACCTAGTGCAG” the binding signal was 3700 fluorescence intensity (a.u.). In the case of “TTAAAACTGATTTAAACATCAACATTTTAAAGTTCAAGCACGGAGTCACCTAGTGCAG”, the binding signal is reported as 18900 fluorescence intensity (a.u.). For “AAAATTGACTAGAGTGCTCTCACAAAATAAACTAGAGAGACGGAGTCACCTAGTGCAG”, the binding signal was 7000 fluorescence intensity (a.u.). “TGAAAATATAAATTGCACACCGTCACGTTGATTTAGTACCCGGAGTCACCTAGTGCAG” was tested, and the binding signal was 4000 fluorescence intensity (a.u.). In the case of “CCTTAATCTCAAATTAAGCTGATAAGTAAGTTTTGGAGCCCGGAGTCACCTAGTGCAG”, the binding signal is reported as 9740 fluorescence intensity (a.u.). In the case of “GCTAACATCAAATGACATGGAACAAAGGTCGGAGGAGTCACGGAGTCACCTAGTGCAG”, the binding signal is reported as 4460 fluorescence intensity (a.u.). In the case of “TTCCCTAATGATTAGCCTCTAAAAGACCTATATATTTAGCCGGAGTCACCTAGTGCAG”, the binding signal is reported as 27600 fluorescence intensity (a.u.). “GGAACTAAATTAAACTGTGTAACGCAAAATTGCGAAGTGGCGGAGTCACCTAGTGCAG” was tested, and the binding signal was 24900 fluorescence intensity (a.u.). “ATGGTTGACTGGCTGGTTCCCTGTGTCTGTCTCACCTTTGCGGAGTCACCTAGTGCAG” was tested, and the binding signal was 19000 fluorescence intensity (a.u.). For “GAAGATTGAGCTGTTTATATGGCAATCTGTGGTTCAAGGCCGGAGTCACCTAGTGCAG”, the binding signal was 16900 fluorescence intensity (a.u.). In the case of “GGTGATCAATGACTGAAACGATCGAGAAGGTTAGTCGTTGCGGAGTCACCTAGTGCAG”, the binding signal is reported as 7930 fluorescence intensity (a.u.). For “TAGATAAATTAAACAACTAACCAAAATATGTTACGTCCGACGGAGTCACCTAGTGCAG”, the binding signal was 6260 fluorescence intensity (a.u.).
